From article PMC8965563, “PaP1, a Broad-Spectrum Lysin-Derived Cationic Peptide to Treat Polymicrobial Skin Infections” (Frontiers in Microbiology, 2022)

Tested on: P. aeruginosa strain NR-51517 (MDR)
Details: ~100-fold more bacteria per wound (controls ~10^8 CFU/g tissue)

## CNC(C)C1CCC(N)C(OC2C(N)CC(N)C(OC3OCC(C)(O)C(NC)C3O)C2O)O1 (centres unmarked) [gentamicin]
0.1% (wt/wt) gentamicin monotherapy in Aquaphor
  bacterial counts vs Aquaphor-treated controls: comparable
1% (wt/wt) gentamicin in Aquaphor
  decrease of bacterial load: 1.3 log10-fold
